Measured values published in the RNAGym collection of RNA variant scans (doi:10.1093/nar/gkz1192).
Read counts are not given, so values of variants with three or more changes are uncertain.

B1: CPEB3 Ribozyme (parent)
chain: UAACAGGGGGCCACAGCAGAAGCGUUCACGUCGCAGCCCCUGUCAGAUUCUGGUGAAUCUGCGAAUUCUGCUGUAUAUCUC

Variants of: B1
Experiment: self-cleavage, relative activity (ratio to wild type); higher = more cleavage; in vitro, sequencing
Outline: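 After error-prone PCR and barcoding, CPEB3 ribozyme mutant libraries were transcribed with T7 RNA polymerase at 37°C for 5 hours, then given 15 min with DNase I before an EDTA stop, and they cleaved during both steps. Reverse transcription with template switching preceded Illumina sequencing. Relative activity divides a variant's cleaved/total read fraction by the unmutated ribozyme's. At least 5 reads were required per variant, and three batches were averaged.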

Row | Variant | self-cleavage
1 | A20G U25C U54C U60C A64G U80C | 0
2 | A20G U25C U54C U67C | 0.35
3 | A20G U25C U58C U66C U80C | 0.16
4 | A20G U25G U67C G70U U80A | 0.12
5 | A20G U26A A45G U67C | 0.59
6 | A20G U26A A45U U78C | 0.22
7 | A20G U26A A56G A57G | 0.16
8 | A20G U26A C40A | 0.21
9 | A20G U26A G30A C40U U66C | 0.12
10 | A20G U26A U41C A57G U72C | 0.43
11 | A20G U26A U41C G42C U80C | 0.36
12 | A20G U26A U43A A45G A57U | 0.09
13 | A20G U26A U48A U51G A57G A64U | 0.07
14 | A20G U26A U49C | 0.4
15 | A20G U26A U51G | 0.5
16 | A20G U26C A28U U58C U76A A77U | 0.16
17 | A20G U26C A45G U67A | 0.11
18 | A20G U26C A45G U69A C71U U74C U76C | 0.03
19 | A20G U26C A57U C59U U67C | 0.09
20 | A20G U26C A64G U67C | 0.29
21 | A20G U26C A65G U80C | 0.19
22 | A20G U26C C39A U54A | 0.21
23 | A20G U26C G30A A47G C68U G73C U74C | 0.07
24 | A20G U26C G42A U51C A64G | 0.28

Row | Variant | self-cleavage
25 | A20G U26C G46C U54A U69C A75G U76G | 0.15
26 | A20G U26C U31A U41C U43C A64U U76C | 0.25
27 | A20G U26C U41A U66C U78C | 0.1
28 | A20G U26C U43C | 0.52
29 | A20G U26C U43C A45C U80C | 0.39
30 | A20G U26C U43C A57G U76C | 0.22
31 | A20G U26C U54C G70A | 0.3
32 | A20G U31A A35U U74C U80C | 0.51
33 | A20G U31A A45G U54C | 0.25
34 | A20G U31A A47G C50A A75G | 0.12
35 | A20G U31A C50U A77G | 0.12
36 | A20G U31A G73C | 0.92
37 | A20G U31A U49C U80C | 0.11
38 | A20G U31A U54C U66C | 0.19
39 | A20G U31C A35G A57G | 1.08
40 | A20G U31C A35U A45G U51A A65C | 0.06
41 | A20G U31C A35U A57G U58A U60C U74A | 0.05
42 | A20G U31C A45G A56G | 0.21
43 | A20G U31C A56U | 0.54
44 | A20G U31C A56U U67A | 0.09
45 | A20G U31C A65G | 0.24
46 | A20G U31C C44G U66C | 0.28
47 | A20G U31C U41C U67A | 0.34
48 | A20G U31C U43C U80C | 0.22

Row | Variant | self-cleavage
49 | A20G U31C U54C U66C | 0.09
50 | A20G U31C U54G U69A | 0.26
51 | A20G U41A U74A | 0.23
52 | A20G U41C A47U A64G U72A U74C U80C | 0.07
53 | A20G U41C A56G | 0.62
54 | A20G U41C A56U U60A U76A | 0.17
55 | A20G U41C U43C A45U A64G A65G | 0.19
56 | A20G U41C U49C U51C | 0.26
57 | A20G U41C U51C U54C | 0.93
58 | A20G U41C U60A | 0.57
59 | A20G U41G A45G U58C U66C | 0.26
60 | A20G U41G U58G U74A | 0.42
61 | A20G U43A A57G | 0.72
62 | A20G U43C A45G | 0.28
63 | A20G U43C A65C U78C | 0.15
64 | A20G U43C C50A G61A U74A | 0.07
65 | A20G U43C G53U | 0.36
66 | A20G U43C U49A U58A | 0.56
67 | A20G U43C U51G U72A | 0.17
68 | A20G U43C U60C A64G U72C A75U | 0.08
69 | A20G U43C U60C U69A U80C | 0.07
70 | A20G U48A A57U | 0.79
71 | A20G U48C A56G U60A | 0.09
72 | A20G U48C A57G U76C | 1.08

Row | Variant | self-cleavage
73 | A20G U48C U51A | 0.22
74 | A20G U49A A77U | 0.57
75 | A20G U49A U58C A77G | 0.07
76 | A20G U49C A57G U72C U80C | 0.16
77 | A20G U49C A64U U67C U80C | 0.11
78 | A20G U49C A65G U66C | 0.5
79 | A20G U49C A65G U72C | 0.25
80 | A20G U49C U51A A64U | 0.12
81 | A20G U49C U78C | 0.21
82 | A20G U49G U54G | 0.21
83 | A20G U51A A75G | 0.53
84 | A20G U51A U66A | 0.41
85 | A20G U51A U80C | 1.01
86 | A20G U51C U60C A75U | 0.18
87 | A20G U51C U80C | 1.04
88 | A20G U54A U69A | 0.27
89 | A20G U54C U60C | 0.62
90 | A20G U54C U76C U78A | 0.49
91 | A20G U60A C68A U69C | 0.09
92 | A20G U60C A65U U74C | 0.14
93 | A20G U60C U72C U80C | 0.31
94 | A20G U60G A65G | 0.15
95 | A20G U66C U69C | 0.2
96 | A20G U67C U69A | 0.67

Row | Variant | self-cleavage
97 | A20G U67C U76C | 0.99
98 | A20G U69C A75G | 0.33
99 | A20G U69G G70U | 0.21
100 | A20G U72A A75U U78C | 0.97
101 | A20G U72G A77U | 0.35
102 | A20G U74C A75C | 1.2
103 | A20G U78C U80A | 0.87
104 | A20U A21C C79U | 0.29
105 | A20U A21G A28G A77G | 0.18
106 | A20U A21G A35G | 0.3
107 | A20U A21G A35U | 0.16
108 | A20U A21G A45C U51G G55A U58C U74A | 0.04
109 | A20U A21G U31C | 0.17
110 | A20U A21G U58C | 0.13
111 | A20U A21U C38G U60C A64G | 0.05
112 | A20U A28C A45G A57G A64G | 0.05
113 | A20U A28C C68A | 0.1
114 | A20U A28G A77G | 0.26
115 | A20U A28G C50A | 0.64
116 | A20U A28G U51C U69C A75C | 0.1
117 | A20U A28G U67C | 0.06
118 | A20U A28U A45G | 0.05
119 | A20U A28U U31A | 0.19
120 | A20U A28U U41C U43C U49A U80G | 0.8

Row | Variant | self-cleavage
121 | A20U A35C C81U | 0.14
122 | A20U A35G A45U U49C U69C U72C U78C | 0.15
123 | A20U A35G A47G G52A C81U | 0.94
124 | A20U A35G A56G U60C U78C | 0.28
125 | A20U A35U A47G U69A | 0.13
126 | A20U A35U A47U U49A A65G U80A | 0.06
127 | A20U A35U A56G U74A | 0.05
128 | A20U A35U G52U U78C U80A | 0.02
129 | A20U A35U U41A U72C | 0.42
130 | A20U A35U U60C U69A U74A U80C | 0.1
131 | A20U A45G U54A | 0.3
132 | A20U A45G U58C U66C C79U | 0.2
133 | A20U A45U U66C U80C | 0.09
134 | A20U A45U U69C | 0.45
135 | A20U A47G A57U U58C | 0.17
136 | A20U A47U U51C U69A G73A | 0.32
137 | A20U A56G C68U U69C | 0.13
138 | A20U A56U A65G U74A A77G | 0.07
139 | A20U A56U U74A | 0.24
140 | A20U A56U U80C | 0.11
141 | A20U A57G U60C | 0.19
142 | A20U A64G U66C U74C | 0.23
143 | A20U A65G U67C | 0.1
144 | A20U C23A U72C | 0.28

Row | Variant | self-cleavage
145 | A20U C27A A65G | 0.22
146 | A20U C27A G30A A65G | 0.18
147 | A20U C29A A45G | 0.12
148 | A20U C29A G52C U54A A56G G73C | 0.26
149 | A20U C29U A65G U74A | 0.07
150 | A20U C29U C38G A45U | 0.17
151 | A20U C32A A77G | 0.07
152 | A20U C32U A35G A77C U78C | 0.13
153 | A20U C38U U43C U72C A77G | 0.07
154 | A20U C39A U58C U80A | 0.35
155 | A20U C39U A47G G53A C62U | 0.17
156 | A20U C40A A56G U67C | 0.13
157 | A20U G24U U25C U41A U66C U80A | 0.07
158 | A20U G30A A77U | 0.07
159 | A20U G30C U41C U51A | 0.11
160 | A20U G33A A56G U60A | 0.13
161 | A20U G36A U43A A64G U76C | 0.12
162 | A20U G36A U67C | 0.12
163 | A20U G52A C81U | 0.5
164 | A20U G61A U67C | 0.37
165 | A20U U25A A75U | 0.26
166 | A20U U25A G52C U58G | 0.09
167 | A20U U25A U26A U31A U41G U43C C62U | 0.09
